In PubChem BioAssay AID1963576 (National Center for Advancing Translational Sciences (NCATS), 2024):
The campaign covered roughly 46,000 compounds. About 60 (0.1%) were called active. Another 3% or so got no clear call; they are omitted. Calls come from the whole dose curve; as a rule, active = well fitted inhibition curve with a large enough effect; inconclusive = small, poorly fitted or top-dose-only effect; inactive = no such curve, though single readings can be large or run the other way. This is one part of the list.

Assay: Primary qHTS assay for Inhibitors of ovarian cancer metastasis using an organotypic tumor microenvironment (TME) model.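 For activity change, negative = inhibition: plate controls were DMSO wells for no effect and tomatine positive control wells for full effect.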 Note: nearly all actives have a fitted effect of over 65% in size.
Details: SKOV3ip1-GFP adhesion/invasion on 3D omental model, fluorescence; series mostly up to 45.8 µM; activity change, negative = inhibition: at the top concentration
Outline: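 qHTS, 4-pt dose (0.36-46 umol/L); SKOV3ip1-GFP, 1,200 cells/well, no FBS; primary omental fibroblast/mesothelial co-culture 48 h pre-grown; 2 h RT + 16 h 37 C; PBS wash, 4% PFA; GFP count 488/509 nm.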

outcome, inactive:
Cc1cccc(C(=O)Nc2ccccc2OCc2cc(=O)n3c(C)csc3n2)c1
CCOc1ccc(Nc2c3c(nc4nncn24)CCC3)cc1
Cc1ccc2nc(CN3CCN(S(=O)(=O)c4ccc(F)cc4)CC3)oc2c1
CCCNC(=O)CSc1cn(CC(=O)N2CCCCCC2)c2ccccc12
COc1ccc(CCNC(=O)CCn2c(=O)c3ccccc3n(Cc3ccccc3C)c2=O)cc1OC
COc1ccc(-c2nc3ccccc3o2)cc1NC(=O)c1ccc(-c2cccc(Cl)c2C)o1
CC1=C(C(=O)Nc2cccc(C(F)(F)F)c2)C2(CCN(C(C)C)CC2)OC1=O
CCN(CC)CCNC(=O)c1ccc2c(=O)n3nc(Nc4ccccc4)sc3nc2c1
CC(=O)Nc1ccc(NC(=O)C2Cc3ccccc3N2C(=O)c2ccccc2)cc1 (configuration not stated)
O=C(CSc1cn(CCNC(=O)c2c(F)cccc2F)c2ccccc12)Nc1ccccc1F
COc1ccc2c(c1)c(=O)c(C(=O)c1ccc(Cl)cc1)cn2CC(=O)Nc1ccc2c(c1)OCCO2
COc1ccc(CNC(=O)c2ccc(-c3nc(CS(=O)c4ccc(C)cc4)c(C)o3)cc2)cc1 (configuration not stated)
Cc1oc(-c2ccccc2Cl)nc1CSc1nncn2c1cc1occc12
Cc1ccc(-c2nnn3c2nc(NCc2ccc4c(c2)OCO4)c2ccccc23)cc1
Cc1ccc(-n2ncc3c(N4CCN(Cc5ccccc5)CC4)ncnc32)cc1
COc1ccc(Cl)cc1S(=O)(=O)N1CCN(C(=O)c2cc(-c3ccc(Br)cc3)n[nH]2)CC1
CCCCCn1c(CCCNC(=O)c2ccccc2OC)nc2ccccc21
CCOC(=O)c1cnc2ccc(C(=O)OC)cc2c1Nc1ccc(OCc2ccccc2Cl)cc1
O=C(O)c1cc(-c2ccccc2)nn1Cc1ccccc1
COc1ccc(C)cc1NC(=O)N(C(C)C)C1CCN(C(C)=O)CC1
Cc1noc(Cn2c(=O)c3ccccc3n(CC(=O)Nc3cc(Cl)ccc3C)c2=O)n1
Cc1ccc(C)c(N2CCN(CCCNC(=O)c3cnn(-c4cccc(Cl)c4)c3C3CCN(C(=O)OC(C)(C)C)CC3)CC2)c1
Cc1cc(C)cc(NC(=O)C(C)N2Cc3ccccc3C2=O)c1 (configuration not stated)

Activity change, negative = inhibition, inactive:
O=C(Nc1ccc(C(=O)OCc2cc(=O)n3c4c(sc3n2)CCCC4)cc1)c1cccc(F)c1 -0.409%
Cc1ccc2c(=O)cc(C(=O)Nc3nc4ccc(Cl)cc4s3)oc2c1 -6.14%
COc1ccc(C(=O)OCc2cc(=O)n3nc(C4CC4)sc3n2)cc1OC -1.32%
Cc1c(CC(=O)NCc2ccccc2Cl)c(=O)oc2cc(O)ccc12 0.581%
COc1cc(OC)cc(N2C(=O)CSC23C(=O)Nc2ccccc23)c1 (configuration not stated) 8.3%
O=C(NCCc1ccccc1)c1cc(-c2ccc(Cl)c(Cl)c2)on1 -5.62%
Cc1ccc2oc(C(=O)Nc3ccc(S(=O)(=O)Nc4nc(C)cc(C)n4)cc3)cc(=O)c2c1 -11.5%
Cc1ccc(NC(=O)CCn2cnc3onc(-c4ccc(F)cc4)c3c2=O)c(Br)c1 7.8%
CC(C)Oc1ccc(CNS(=O)(=O)c2ccc(-c3cc(C(F)(F)F)on3)s2)cc1 3.29%
CCOc1ccc(-c2nnc(SCC(=O)Nc3cccc(Cl)c3C)o2)cc1 -7.82%
O=C(CSc1nc2sc3c(c2c(=O)[nH]1)CCCC3)Nc1ccccc1F 4.73%
O=c1cc(O)c(Cl)c[nH]1 -2.8%
COc1cccc(NC(=O)C2CCN(c3nnc(-n4c(C)ccc4C)s3)CC2)c1 -0.0666%
Cc1ccc(CNC(=O)C2CCCN(Cc3nc(-c4cccc(C)c4)oc3C)C2)cc1 (configuration not stated) -21%
Cc1ccc(Cl)cc1N1CCN(C(=O)COCc2cc(-c3ccc4c(c3)OCO4)on2)CC1 -8.43%
Cc1c(-c2nc(-c3ccc4c(c3)OCO4)no2)nnn1-c1cccc(C(F)(F)F)c1 5.32%
Cc1cc2c(cc1S(=O)(=O)Nc1cccc(Cl)c1C)OCCN2C -14.8%
CCOc1cc(C2C(C(=O)OC)=C(C)NC3=C2C(=O)c2ccccc23)cc(Br)c1OCC (configuration not stated) -21%
COc1ccc(CNC(=O)CS(=O)(=O)c2cccc3nsnc23)cc1 -4.3%
Cc1cc(C)c(NC(=O)Cc2ccc(-n3c(C)nc4cccnc43)cc2)c(C)c1 -9.4%
CC1=C(C(=O)OC2CCCCCC2)C(c2ccc(Cl)cc2)CC(=O)N1 (configuration not stated) -9.54%
O=C(c1ccc([N+](=O)[O-])cc1)N1c2ncnn2C2(CCCCC2)[C@@H]2CCCC[C@@H]21 13.5%
COc1ccc(Cl)cc1C(=O)NCc1nc(-c2cccc(C)c2)no1 -22.7%
Cc1ccc(OC(=O)CSc2nnc(-c3cccs3)o2)c(C)c1 29.8%
COc1ccc(Cn2c(CCC(=O)Nc3ccccc3OC)nc3cccnc32)cc1 4.43%
Cc1ccc2nc(-c3ccco3)c(Nc3ccc4c(c3)OCCO4)n2c1 -17.8%
CC(C)OCCCn1c(=O)c2ccccc2n2c(-c3ccccc3F)nnc12 1.72%
CCc1c(C)nc2nc(-c3ccccc3)nn2c1NCc1ccc(C)cc1 19.6%
COc1cccc2[nH]c(C(=O)NCc3ccc4c(c3)CCN4C(=O)c3ccc(F)cc3)cc12 5.75%
COc1ccc(Br)cc1CNC(=O)Cn1ncn2nc(-c3cccs3)cc2c1=O 8.6%
COc1ccccc1N1CCN(C(=O)c2ccc3c(c2)CCN3S(=O)(=O)c2ccccc2)CC1 -3.94%
O=C(CCS(=O)(=O)c1cccc2nonc12)Nc1ccc(F)cc1F 19.8%
Cc1ccc(CNC(=O)C(C)n2c(=O)cc(-c3ccccc3)c3c(C)nn(C)c32)cc1 (configuration not stated) 0.329%
CCCn1ccc2c(OCC(=O)Nc3ccc(OC)c(OC)c3)cccc2c1=O 6.05%
O=C(CC(c1cccs1)N1Cc2ccccc2C1=O)Nc1cccc(F)c1 (configuration not stated) 3.23%
O=C(NCCc1ccc(F)cc1)C(=O)NCC(c1cccs1)S(=O)(=O)c1ccccc1 (configuration not stated) -7.77%
COc1ccccc1CNC(=O)c1ccc(CSc2nc3ccncc3n2Cc2cccc(F)c2)cc1 4.56%
O=C(NOC[C@H](O)CO)c1ccc(F)c(F)c1Nc1ccc(I)cc1F 15.1%
COc1ccc2c(Sc3ccccc3)c(C(=O)NCc3cc(Br)ccc3OC)[nH]c2c1 -5.07%
Cc1cccc(-c2nc(C)c(CCNC(=O)C(=O)Nc3ccc(C)c(C)c3)s2)c1 -4.8%
CCOc1ccccc1CNc1nc2nc(C)c(CC(=O)OC)c(=O)n2[nH]1 4.28%
Cc1cccc(C(=O)Nc2ccc(S(=O)(=O)N3CCCCC3c3cccnc3)cc2)c1 (configuration not stated) -3.57%
O=C(CSc1nc(=O)[nH]c2c1CCC2)NCc1ccc(F)cc1 3.35%
O=C(NCc1ccccc1Cl)C1=Cc2cc(Br)ccc2OC1 -1.76%
CC1=C(C(N)=O)C(c2ccc(C)cc2)n2nc(SCc3ccccc3)nc2N1 (configuration not stated) -20.7%
COc1ccc(S(=O)(=O)Nc2cccc(-c3ccc(N4CCCC4)nn3)c2)cc1F -14%
Cc1ccccc1NC(=O)CSc1ccc(-c2ccccn2)nn1 -2.06%
CCN1CCN(CCCNC(=O)Cn2nc(C)n3c(cc4c(OC)cccc43)c2=O)CC1 2.47%
COc1ccccc1-c1nn(CCC(=O)Nc2ccc(C)cc2)c2nc(C)cc(C)c12 -4.18%
CC(=O)Nc1cccc(-c2nnc(SCC(=O)c3cc([N+](=O)[O-])ccc3Cl)o2)c1 8.01%
COc1cccc(N2CCN(C(=O)c3ccc4nc(N5CCC(C)CC5)sc4c3)CC2)c1 -25.6%
CCN(CC)C(=O)Cn1ncc2c([nH]c3ccccc32)c1=O 6.46%
CCOc1ccc(NC(=O)CC2C(=O)N(c3ccc(OC)cc3)C(=O)N2CCC2=CCCCC2)cc1 (configuration not stated) -13.7%
O=C(NCC(c1ccc2c(c1)OCO2)N1CCN(c2ccccc2)CC1)C(=O)Nc1ccccc1F (configuration not stated) -10.4%
Cc1oc2c(c1C(=O)NCc1ccccc1F)C1=NCCN1C=N2 4.97%
CC(C)Oc1ccc(CNC(=O)c2cnc3sc(N4CCCC4)nn3c2=O)cc1 -7.12%
CCOC(=O)NNC(=O)C1CCC(C)CC1 (configuration not stated) 12.1%
Cc1ccc(N2CCN(c3nc4ccc(C(=O)c5ccccc5)cc4n4cnnc34)CC2)c(C)c1 -29.5%
COc1ccc(C(C)=O)cc1CSc1nc(Nc2ccc(F)c(F)c2)c2ccccc2n1 0.457%
Cc1ccc(-c2nnc3ccccc3c2C(=O)Nc2ccc(F)cc2)cc1 -4.61%
Cc1ccc([C@@H]2O[C@H](CO)[C@@H](O)[C@H](O)[C@@H]2O)cc1Cc1ccc(-c2ccc(F)cc2)s1 5.58%
CC(=O)Nc1ccc(NC(=O)c2ccc3c(c2)CCN3S(=O)(=O)c2ccc(C)cc2)cc1 -0.912%
Cc1ccn2c(Nc3ccccc3)c(-c3c[nH]c4ccccc34)nc2c1 -5.96%
Cc1cc(C)cc(NC(=O)C(=O)NCCc2sc(-c3cccc(F)c3)nc2C)c1 0.926%
Cc1ccc(-c2nnc(Nc3ccc(OCC(N)=O)cc3)c3ccccc23)cc1S(=O)(=O)NCC1CCCO1 (configuration not stated) 0.82%
O=C(CCn1cnc2onc(-c3ccc(F)cc3)c2c1=O)Nc1cccc(C(F)(F)F)c1 0.159%
CCOC(=O)c1[nH]c2ccccc2c1NC(=O)c1ccc(C)c(C)c1 -3.38%
O=C(CSc1n[nH]c(-c2ccccc2)n1)N1CCN(c2ccc(F)cc2)CC1 7.92%
COCC(=O)NCC=Cc1ccc2ncnc(Nc3ccc(Oc4ccc(C)nc4)c(C)c3)c2c1 -1.56%
Cc1ccc(CSc2nc3ccccc3c3nc(CCn4c(C)nc5ccccc54)nn23)cc1 5.22%
CCc1ccccc1NC(=O)CCn1cccn1 -5.41%
Cc1ccc(CNC(=O)C2CCN(C(=O)N3CC(C)Oc4ccc(Cl)cc43)CC2)cc1 (configuration not stated) 36.5%
CCC(C(=O)NCCc1ccc(OC)c(OC)c1OC)n1nc(C)c2sc3ccccc3c2c1=O (configuration not stated) 0.0292%
Cc1ccc(-n2c(=O)c3c(cnn3C)n(CC(=O)Nc3cccc(Cl)c3)c2=O)cc1 5.02%
